# Measurements reported in the supplement of paper PMC8728848.
# The other results are listed elsewhere or left out.
# Tests used:
# Assay in all cases: glycan array binding signal (z-score within array); higher = stronger binding
# Settings in all cases: glycan notation: IUPAC condensed, linker removed
# GlcNAc(b1-4)GlcNAc = target: GlcNAc(b1-4)GlcNAc
# In short: (§1)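 Glycan array data came from 3228 arrays in the Consortium for Functional Glycomics database, and only arrays with an available protein sequence were kept. Glycan names were put into IUPAC-condensed notation, and columns mapping to the same glycan were averaged. The binding signal is a within-array Z-score, averaged across arrays of one protein sequence run at different concentrations or buffers and across linkers. A negative Z-score can be read as non-binding.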
# [1] = target: GlcNAc(b1-4)GlcNAc(b1-4)GlcNAc
# In short: as §1
# [2] = target: GlcNAc(b1-4)GlcNAc(b1-4)GlcNAc(b1-4)GlcNAc(b1-4)GlcNAc
# In short: as §1
# [3] = target: GlcNAc(b1-4)GlcNAc(b1-4)GlcNAc(b1-4)GlcNAc(b1-4)GlcNAc(b1-4)GlcNAc
# In short: as §1
# [4] = target: GlcNAc(b1-4)[GlcNAc(b1-6)]GalNAc
# In short: as §1
# [5] = target: GlcNAc(b1-6)Gal(b1-4)GlcNAc
# In short: as §1
# GlcNAc(b1-6)GalNAc = target: GlcNAc(b1-6)GalNAc
# In short: as §1
# GlcNAc3Prop(b1-4)GlcNAc = target: GlcNAc3Prop(b1-4)GlcNAc
# In short: as §1
# [6] = target: GlcNAc6S(b1-3)Gal(b1-4)GlcNAc
# In short: as §1
# Kdn(a2-3)Gal(b1-3)GalNAc = target: Kdn(a2-3)Gal(b1-3)GalNAc
# In short: as §1
# Kdn(a2-3)Gal(b1-3)GlcNAc = target: Kdn(a2-3)Gal(b1-3)GlcNAc
# In short: as §1
# Kdn(a2-3)Gal(b1-4)Glc = target: Kdn(a2-3)Gal(b1-4)Glc
# In short: as §1
# Kdn(a2-3)Gal(b1-4)GlcNAc = target: Kdn(a2-3)Gal(b1-4)GlcNAc
# In short: as §1
# [7] = target: Kdn(a2-3)Gal(b1-4)[Fuc(a1-3)]GlcNAc
# In short: as §1
# Kdn(a2-6)Gal(b1-4)GlcNAc = target: Kdn(a2-6)Gal(b1-4)GlcNAc
# In short: as §1
# [8] = target: Man(a1-2)Man(a1-2)Man(a1-3)Man
# In short: as §1
# [9] = target: Man(a1-2)Man(a1-2)Man(a1-6)[Man(a1-3)]Man
# In short: as §1
# Man(a1-2)Man(a1-3)Man = target: Man(a1-2)Man(a1-3)Man
# In short: as §1
# [10] = target: Man(a1-2)Man(a1-3)[Man(a1-2)Man(a1-6)]Man
# In short: as §1
# [11] = target: Man(a1-2)Man(a1-3)[Man(a1-2)Man(a1-6)]Man(a1-6)[Man(a1-2)Man(a1-2)Man(a1-3)]Man
# In short: as §1
# [12] = target: Man(a1-2)Man(a1-3)[Man(a1-2)Man(a1-6)]Man(a1-6)[Man(a1-2)Man(a1-2)Man(a1-3)]Man(b1-4)GlcNAc(b1-4)GlcNAc
# In short: as §1
# [13] = target: Man(a1-2)Man(a1-3)[Man(a1-6)]Man(a1-6)[Man(a1-2)Man(a1-3)]Man(b1-4)GlcNAc(b1-4)GlcNAc
# In short: as §1
# [14] = target: Man(a1-2)Man(a1-6)[Man(a1-3)]Man(a1-6)[Man(a1-2)Man(a1-2)Man(a1-3)]Man
# In short: as §1
# [15] = target: Man(a1-2)Man(a1-6)[Man(a1-3)]Man(a1-6)[Man(a1-2)Man(a1-2)Man(a1-3)]Man(b1-4)GlcNAc(b1-4)GlcNAc
# In short: as §1
# Man(a1-3)[Man(a1-6)]Man = target: Man(a1-3)[Man(a1-6)]Man
# In short: as §1
# [16] = target: Man(a1-3)[Man(a1-6)]Man(a1-6)[Man(a1-2)Man(a1-3)]Man(b1-4)GlcNAc(b1-4)GlcNAc
# In short: as §1
# [17] = target: Man(a1-3)[Man(a1-6)]Man(a1-6)[Man(a1-3)]Man
# In short: as §1
# [18] = target: Man(a1-3)[Man(a1-6)]Man(a1-6)[Man(a1-3)]Man(b1-4)GlcNAc(b1-4)GlcNAc
# In short: as §1
# [19] = target: Man(a1-3)[Man(a1-6)]Man(b1-4)GlcNAc(b1-4)GlcNAc
# In short: as §1
# Man(a1-6)Man = target: Man(a1-6)Man
# In short: as §1
# Man(b1-4)GlcNAc = target: Man(b1-4)GlcNAc
# In short: as §1
# Neu5Ac(a2-3)Gal = target: Neu5Ac(a2-3)Gal
# In short: as §1
# [20] = target: Neu5Ac(a2-3)Gal(b1-3)GalNAc
# In short: as §1
# [21] = target: Neu5Ac(a2-3)Gal(b1-3)GalNAc(b1-3)Gal(a1-4)Gal(b1-4)Glc
# In short: as §1
# [22] = target: Neu5Ac(a2-3)Gal(b1-3)GalNAc(b1-3)Gal(b1-4)GlcNAc
# In short: as §1
# [23] = target: Neu5Ac(a2-3)Gal(b1-3)GalNAc(b1-4)[Neu5Ac(a2-3)]Gal(b1-4)Glc
# In short: as §1
# [24] = target: Neu5Ac(a2-3)Gal(b1-3)GalNAc6S
# In short: as §1
# [25] = target: Neu5Ac(a2-3)Gal(b1-3)GlcNAc
# In short: as §1
# [26] = target: Neu5Ac(a2-3)Gal(b1-3)GlcNAc(b1-3)Gal(b1-3)GlcNAc
# In short: as §1
# [27] = target: Neu5Ac(a2-3)Gal(b1-3)GlcNAc6S
# In short: as §1
# [28] = target: Neu5Ac(a2-3)Gal(b1-3)[Fuc(a1-4)]GlcNAc
# In short: as §1
# [29] = target: Neu5Ac(a2-3)Gal(b1-3)[Fuc(a1-4)]GlcNAc(b1-3)Gal(b1-3)[Fuc(a1-4)]GlcNAc
# In short: as §1
# [30] = target: Neu5Ac(a2-3)Gal(b1-3)[Fuc(a1-4)]GlcNAc(b1-3)Gal(b1-4)[Fuc(a1-3)]GlcNAc
# In short: as §1
# [31] = target: Neu5Ac(a2-3)Gal(b1-3)[Neu5Ac(a2-3)Gal(b1-4)]GlcNAc
# In short: as §1
# [32] = target: Neu5Ac(a2-3)Gal(b1-3)[Neu5Ac(a2-6)]GalNAc
# In short: as §1
# Neu5Ac(a2-3)Gal(b1-4)Glc = target: Neu5Ac(a2-3)Gal(b1-4)Glc
# In short: as §1
# [33] = target: Neu5Ac(a2-3)Gal(b1-4)GlcNAc
# In short: as §1
# [34] = target: Neu5Ac(a2-3)Gal(b1-4)GlcNAc(b1-2)Man(a1-3)[GlcNAc(b1-2)Man(b1-4)GlcNAc(b1-2)Man(a1-6)]Man(b1-4)GlcNAc(b1-4)GlcNAc
# In short: as §1
# [35] = target: Neu5Ac(a2-3)Gal(b1-4)GlcNAc(b1-2)Man(a1-3)[Neu5Ac(a2-6)Gal(b1-4)GlcNAc(b1-2)Man(a1-6)]Man(b1-4)GlcNAc(b1-4)GlcNAc
# In short: as §1
# [36] = target: Neu5Ac(a2-3)Gal(b1-4)GlcNAc(b1-3)Gal(b1-3)GlcNAc
# In short: as §1
# [37] = target: Neu5Ac(a2-3)Gal(b1-4)GlcNAc(b1-3)Gal(b1-4)GlcNAc
# In short: as §1
# [38] = target: Neu5Ac(a2-3)Gal(b1-4)GlcNAc(b1-3)Gal(b1-4)GlcNAc(b1-3)Gal(b1-4)GlcNAc
# In short: as §1
# [39] = target: Neu5Ac(a2-3)Gal(b1-4)GlcNAc(b1-3)Gal(b1-4)[Fuc(a1-3)]GlcNAc
# In short: as §1
# [40] = target: Neu5Ac(a2-3)Gal(b1-4)GlcNAc(b1-3)GalNAc
# In short: as §1
# [41] = target: Neu5Ac(a2-3)Gal(b1-4)GlcNAc(b1-6)[Gal(b1-3)]GalNAc
# In short: as §1
# [42] = target: Neu5Ac(a2-3)Gal(b1-4)GlcNAc(b1-6)[Neu5Ac(a2-3)Gal(b1-3)]GalNAc
# In short: as §1
# [43] = target: Neu5Ac(a2-3)Gal(b1-4)GlcNAc6S
# In short: as §1
# [44] = target: Neu5Ac(a2-3)Gal(b1-4)[Fuc(a1-3)]GlcNAc
# In short: as §1
# [45] = target: Neu5Ac(a2-3)Gal(b1-4)[Fuc(a1-3)]GlcNAc(b1-3)Gal
# In short: as §1
# [46] = target: Neu5Ac(a2-3)Gal(b1-4)[Fuc(a1-3)]GlcNAc(b1-3)Gal(b1-4)GlcNAc
# In short: as §1
binder,measurement,setting,value
"Sialidase (Vibrio cholerae), P37060 (protein) GAMALFDYNATGDTEFDSPAKQGWMQDNTNNGSGVLTNADGMPAWLVQGIGGRAQWTYSLSTNQHAQASSFGWRMTTEMKVLSGGMITNYYANGTQRVLPIISLDSSGNLVVEFEGQTGRTVLATGTAATEYHKFELVFLPGSNPSASFYFDGKLIRDNIQPTASKQNMIVWGNGSSNTDGVAAYRDIKFEIQGDALNGSMALFDYNATGDTEFDSPAKQGWMQDNTNNGSGVLTNADGMPAWLVQGIGGRAQWTYSLSTNQHAQASSFGWRMTTEMKVLSGGMITNYYANGTQRVLPIISLDSSGNLVVEFEGQTGRTVLATGTAATEYHKFELVFLPGSNPSASFYFDGKLIRDNIQPTASKQNMIVWGNGSSNTDGVAAYRDIKFEIQGDLQALGMALFDYNATGDTEFDSPAKQGWMQDNTNNGSGVLTNADGMPAWLVQGIGGRAQWTYSLSTNQHAQASSFGWRMTTEMKVLSGGMITNYYANGTQRVLPIISLDSSGNLVVEFEGQTGRTVLATGTAATEYHKFELVFLPGSNPSASFYFDGKLIRDNIQPTASKQNMIVWGNGSSNTDGVAAYRDIKFEIQGD",glycan array binding signal (z-score),GlcNAc(b1-4)GlcNAc,-0.452
same,glycan array binding signal (z-score),[1],-0.652
same,glycan array binding signal (z-score),[2],-0.605
same,glycan array binding signal (z-score),[3],-0.662
same,glycan array binding signal (z-score),[4],-0.547
same,glycan array binding signal (z-score),[5],-0.492
same,glycan array binding signal (z-score),GlcNAc(b1-6)GalNAc,-0.648
same,glycan array binding signal (z-score),GlcNAc3Prop(b1-4)GlcNAc,-0.102
same,glycan array binding signal (z-score),[6],-0.434
same,glycan array binding signal (z-score),Kdn(a2-3)Gal(b1-3)GalNAc,-0.286
same,glycan array binding signal (z-score),Kdn(a2-3)Gal(b1-3)GlcNAc,-0.571
same,glycan array binding signal (z-score),Kdn(a2-3)Gal(b1-4)Glc,-0.108
same,glycan array binding signal (z-score),Kdn(a2-3)Gal(b1-4)GlcNAc,-0.198
same,glycan array binding signal (z-score),[7],-0.064
same,glycan array binding signal (z-score),Kdn(a2-6)Gal(b1-4)GlcNAc,-0.384
same,glycan array binding signal (z-score),[8],-0.515
same,glycan array binding signal (z-score),[9],-0.609
same,glycan array binding signal (z-score),Man(a1-2)Man(a1-3)Man,-0.527
same,glycan array binding signal (z-score),[10],-0.369
same,glycan array binding signal (z-score),[11],-0.629
same,glycan array binding signal (z-score),[12],0.193
same,glycan array binding signal (z-score),[13],-0.076
same,glycan array binding signal (z-score),[14],-0.524
same,glycan array binding signal (z-score),[15],-0.344
same,glycan array binding signal (z-score),Man(a1-3)[Man(a1-6)]Man,-0.644
same,glycan array binding signal (z-score),[16],-0.516
same,glycan array binding signal (z-score),[17],-0.625
same,glycan array binding signal (z-score),[18],-0.231
same,glycan array binding signal (z-score),[19],-0.547
same,glycan array binding signal (z-score),Man(a1-6)Man,-0.099
same,glycan array binding signal (z-score),Man(b1-4)GlcNAc,-0.608
same,glycan array binding signal (z-score),Neu5Ac(a2-3)Gal,0.621
same,glycan array binding signal (z-score),[20],1.15
same,glycan array binding signal (z-score),[21],-0.275
same,glycan array binding signal (z-score),[22],-0.191
same,glycan array binding signal (z-score),[23],1.52
same,glycan array binding signal (z-score),[24],2.17
same,glycan array binding signal (z-score),[25],1.47
same,glycan array binding signal (z-score),[26],-0.379
same,glycan array binding signal (z-score),[27],2.64
same,glycan array binding signal (z-score),[28],0.801
same,glycan array binding signal (z-score),[29],5.53
same,glycan array binding signal (z-score),[30],1.51
same,glycan array binding signal (z-score),[31],1.34
same,glycan array binding signal (z-score),[32],2.8
same,glycan array binding signal (z-score),Neu5Ac(a2-3)Gal(b1-4)Glc,1.6
same,glycan array binding signal (z-score),[33],-0.315
same,glycan array binding signal (z-score),[34],-0.457
same,glycan array binding signal (z-score),[35],6.62
same,glycan array binding signal (z-score),[36],-0.398
same,glycan array binding signal (z-score),[37],4.64
same,glycan array binding signal (z-score),[38],0.256
same,glycan array binding signal (z-score),[39],0.579
same,glycan array binding signal (z-score),[40],-0.105
same,glycan array binding signal (z-score),[41],-0.143
same,glycan array binding signal (z-score),[42],0.011
same,glycan array binding signal (z-score),[43],2.73
same,glycan array binding signal (z-score),[44],1.13
same,glycan array binding signal (z-score),[45],-0.59
same,glycan array binding signal (z-score),[46],1.45
